Measurements from PubChem BioAssay AID1476 (National Center for Advancing Translational Sciences (NCATS), 2009).
About 4,500 (2.2%) of roughly 200,000 compounds were called active. The shares of active, inactive and inconclusive entries below differ from those in the screen. Calls come from the whole dose curve; as a rule, active = well fitted inhibition curve with a large enough effect; inconclusive = small, poorly fitted or top-dose-only effect, or effect the other way; inactive = flat fitted curve, though single readings scatter. A potency beside an inconclusive call is a rough fit, not a confirmed value.

These molecules were tested against Cruzipain (Trypanosoma cruzi) (UniProt P25779) (assay: qHTS Assay for Promiscuous and Specific Inhibitors of Cruzain (without detergent)). Conditions: purified cruzain, Z-FR-AMC fluorescence, no detergent.
Chain of UniProt P25779 (P25779 whole entry, looked up): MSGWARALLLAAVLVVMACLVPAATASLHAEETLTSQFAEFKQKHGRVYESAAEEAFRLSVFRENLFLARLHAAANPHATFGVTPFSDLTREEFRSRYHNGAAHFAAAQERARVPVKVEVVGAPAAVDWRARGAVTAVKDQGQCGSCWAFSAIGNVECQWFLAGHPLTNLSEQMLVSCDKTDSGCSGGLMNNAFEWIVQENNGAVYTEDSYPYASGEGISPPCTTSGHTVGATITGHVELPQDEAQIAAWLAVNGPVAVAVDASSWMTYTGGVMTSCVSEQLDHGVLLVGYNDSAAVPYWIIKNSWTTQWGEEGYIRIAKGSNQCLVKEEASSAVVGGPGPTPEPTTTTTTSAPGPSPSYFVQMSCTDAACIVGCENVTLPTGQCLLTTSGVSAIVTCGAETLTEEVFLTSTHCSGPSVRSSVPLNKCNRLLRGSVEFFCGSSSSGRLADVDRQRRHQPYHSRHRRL
Method in brief: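 Purified cruzain at 1.5 nM, pre-incubated 15 min with compound at room temperature in 100 mM sodium acetate pH 5.5, 5 mM DTT, 0.00005% Triton X-100. Reaction started with 2 uM Z-FR-AMC; AMC fluorescence increase over 60 s gives rate.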
Note: nearly all actives have a fitted effect of over 40% in size.
Potency is the fitted concentration of half-maximal effect; tags give direction and shape of the fitted curve.
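Throughout, for max response, negative = inhibition: plate controls were enzyme without inhibitor for no effect and buffer without enzyme for full effect.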

| Structure (SMILES) | Potency | max response, negative = inhibition |
| --- | --- | --- |
| NC1=C(c2ccc(F)cc2)C(=O)CS1 | active: 15.8 µM | – |
| Cc1ccc(N(CC(=O)N/N=C/c2ccc(OC3CSC3)cc2)S(=O)(=O)c2ccccc2)cc1 | inconclusive: 39.8 µM [inhibitor, single point] | – |
| NC(=O)c1cc(S(=O)(=O)NCC2CCC(C(=O)Nc3ccc(Cl)cc3)CC2)cs1 (stereo unspecified) | – | inactive: -12.1% |
| Cc1nc(NC(=O)/C=C/c2ccc(C(C)(C)C)cc2)sc1C(=O)N(C)C | inconclusive: 39.8 µM [activator, single point] | – |
| O=C(c1cc([N+](=O)[O-])ccc1Cl)N1c2ccccc2Sc2ccccc21 | inconclusive: 39.8 µM [inhibitor, single point] | – |
| O=C(c1cc(-c2ccccn2)nc2c(Cl)cccc12)N1CCN(C(=O)C2CCCO2)CC1 (stereo unspecified) | inconclusive: 39.8 µM [activator, single point] | – |
| CCCCC/C=C\C/C=C\C/C=C\C/C=C\CCCC(=O)OC(CO)CO | inconclusive: 12.6 µM [activator, partial curve] | – |
| O=C(Nc1nnc(-c2ccccc2F)s1)C1CCN(S(=O)(=O)c2ccc(Cl)cc2)CC1 | inconclusive: 31.6 µM [inhibitor, single point] | – |
| Cn1c(C(=O)N2CCCC(C(=O)NCCCc3ccccc3)C2)cc2sccc21 (stereo unspecified) | inconclusive: 25.1 µM [activator, single point] | – |
| COc1cccc(CNC(=O)c2ccc(NC(=O)N3CCCCc4ccccc43)cc2)c1 | – | inactive: -5.09% |
| COc1ccc2oc(=O)cc(CN3CCN(c4ccccc4F)CC3)c2c1 | – | inactive: -7.6% |
| COc1cc(C2CC(=O)Nc3c2c(=O)[nH]c2ncnn32)ccc1O (stereo unspecified) | – | inactive: 15.7% |
| Cc1cc(NC(=O)c2cccc3ccccc23)cc(C)c1OCC(=O)N1CCOCC1 | inconclusive: 39.8 µM [activator, single point] | – |
| CCOC(=O)c1cccc(Nc2ccc3cc(S(=O)(=O)N4CCCCC4)ccc3n2)c1 | active: 25.1 µM | – |
| COc1ccc2c(c1)c(=O)oc1c(C)c(OCC(=O)N3CCc4ccccc4C3)ccc12 | inconclusive: 39.8 µM [inhibitor, single point] | – |
| O=C(CSc1nc2c([nH]c3ccccc32)c(=O)n1-c1ccccc1)N1CCCC1 | – | inactive: 2.08% |
| Cc1sc2nc(C3CC3)nc(SCC(=O)N3CCc4ccccc4C3)c2c1C | inconclusive: 39.8 µM [inhibitor, single point] | – |
| O=C(Oc1cc2oc(=O)c3c(c2cc1Cl)CCCC3)c1cccs1 | inconclusive: 31.6 µM [inhibitor, single point] | – |
| O=C(CSc1nnc(COc2cccc3ccccc23)o1)N1c2ccccc2CCc2ccccc21 | active: 12.6 µM | – |
| CSc1ccc(CCNC(=O)Cn2ncc3c(=O)oc4ccc(C)cc4c32)cc1 | – | inactive: -1.05% |
| COCCn1c(=O)c(CCc2ccccc2)nc2cnc(N3CCOCC3)nc21 | inconclusive: 31.6 µM [activator, single point] | – |

| Structure (SMILES) | Potency | max response, negative = inhibition |
| --- | --- | --- |
| COc1nnc(-c2ccc(N3CCOCC3)c(NC(=O)c3ccco3)c2)c2ccccc12 | inconclusive: 39.8 µM [activator, single point] | – |
| O=C(NCC#CCOCc1ccccc1)c1ccccc1 | active: 12.6 µM | – |
| Cc1cccc(NC(=O)Cn2cc(C(=O)c3ccco3)c3ccccc32)c1C | – | inactive: 15.9% |
| COc1ccc(CN2C(=O)C(NC(=O)c3ccccc3C)(C(F)(F)F)N=C2c2ccccc2)cc1 (stereo unspecified) | inconclusive: 39.8 µM [activator, single point] | – |
| CC(C)=C1C(=O)C(c2ccccc2)=C2CN3C(=O)N(CCc4ccccc4)C(=O)[C@]3(C)[C@H]21 | – | inactive: -20.7% |
| COc1ccc2c(c1)-c1nc(NC(=O)c3ccc(Cl)cc3)sc1CC2 | inconclusive: 25.1 µM [inhibitor, single point] | – |
| Cc1cccn2c(=O)cc(COc3cccc(NC(=O)c4ccccc4F)c3)nc12 | – | inactive: 4.15% |
| CC1=NNC(=S)NCCCN2CCN(CCCNC(=S)NN=C(C)C=NNC(=S)NCCCN3CCN(CCCNC(=S)NN=C1)CC3)CC2 | – | inactive: -0.95% |
| COc1ccc(NC(=O)Cn2c(=O)n(Cc3nc(-c4ccccc4)no3)c(=O)c3cc4c(cc32)OCO4)cc1Cl | inconclusive: 5.01 µM [inhibitor, full curve] | – |
| CC(=O)O[C@@H]1C(=O)[C@@]2(C)[C@H](O)C[C@H]3OC[C@]3(OC(C)=O)[C@@H]2[C@H](OC(=O)c2ccccc2)[C@@]2(O)C[C@H](OC(=O)[C@@H](O)[C@@H](NC(=O)c3ccccc3)c3ccccc3)C(C)=C1C2(C)C (stereo in doubt) | inconclusive: 12.6 µM [activator, partial curve] | – |
| CCc1ccc(NC(=O)CC2C(=O)N(c3ccccc3)C(=O)N2C(C)C)cc1 (stereo unspecified) | – | inactive: 6.33% |
| CCCCc1nnc(NC(=O)CSc2nc(=O)cc(N)n2-c2ccccc2)s1 | inconclusive: 31.6 µM [inhibitor, single point] | – |
| COC(=O)c1[nH]c2cc(OC)ccc2c1NC(=O)c1nonc1C | inconclusive: 31.6 µM [inhibitor, single point] | – |
| COC(=O)c1ccccc1NC(=O)Cc1noc2ccc(C)cc12 | – | inactive: 2.36% |
| Cc1ccc(S(=O)(=O)c2c(N)n(/N=C/c3ccco3)c3nc4ccccc4nc23)cc1C | active: 15.8 µM | – |
| O=C(Nc1ccc([N+](=O)[O-])cn1)c1cc(-c2cccc(Cl)c2)nc2ccccc12 | inconclusive: 39.8 µM [inhibitor, single point] | – |
| COc1cccc(C2=Nc3cccc4cccc(c34)N2)c1 | active: 15.8 µM | – |
| CC(C)CCNC(=O)CSCc1cnn(-c2ccccc2)c1-n1cccc1 | – | inactive: -1.35% |
| CCCNC(=O)OC[C@H]1O[C@H](CCO/N=C/[C@@H](OC)[C@H](C)/C=C/CC(=O)OC)C=C[C@@H]1Oc1ccc(OC)cc1 | inconclusive: 39.8 µM [activator, single point] | – |
| O=C(Nc1ccc(F)cc1F)c1noc2c1CCc1ccccc1-2 | inconclusive: 15.8 µM [inhibitor, partial curve] | – |
